Measurements as given in PubChem BioAssay AID686970 (National Center for Advancing Translational Sciences (NCATS), 2013).
Out of some 360,000 compounds screened, about 6,000 (1.7%) were called active. The shares of active, inactive and inconclusive entries below differ from those in the screen. The call rests on the fitted dose curve; in most records, active means well fitted cell-killing curve with a large enough effect; inconclusive means small, poorly fitted or top-dose-only effect, or effect the other way; inactive means flat fitted curve, though single readings scatter. Potencies of inconclusive entries are left out as doubtful fits.

Assay: qHTS for induction of synthetic lethality in tumor cells producing 2HG: qHTS for the HT-1080-NT fibrosarcoma cell line;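 further: NT is the 2HG producing partner of a matched IDH1 knockdown line; nearly all actives have a fitted effect of over 55% in size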;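 on activity, negative = less viability: 0% = DMSO-treated cells and -100% = media-only wells without cells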
Conditions: HT-1080-NT fibrosarcoma viability, CellTiter-Glo ATP luminescence, 48 h; activity, negative = less viability: at 46.1 µM (top of the series)
How it was run: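 Fibrosarcoma NT cells, 750 per well in 5% FBS RPMI, were exposed to compound for 48 hours. Viability: CellTiter-Glo luminescence.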
Potency means the concentration at half of the fitted maximal effect; tags describe the fitted curve by direction and shape.

SMILES | Potency | activity, negative = less viability
Cc1ccc(C(=O)Nc2nc3ccccc3n2CCN2CCCC2)cc1 | inconclusive [cytotoxic, single point] | 
Cc1cc(C)cc(N2C(=O)NC(=O)/C(=C\C=C\c3ccco3)C2=O)c1 | inconclusive [cytotoxic, single point] | 
O=C(CCCc1ccc(N(CCCl)CCCl)cc1)NCc1ccccc1 | inconclusive [cytotoxic, partial curve] | 
OC(Cc1ccccc1)(c1ccccc1)C1CN2CCC1CC2 (stereo not given) | inconclusive [cytotoxic, single point] | 
COc1cccc(C(c2nnnn2C2CCCC2)N2CCC3(CC2)C(=O)NCN3c2ccccc2)c1OC (stereo not given) | inconclusive [cytotoxic, single point] | 
CN1CCc2nc(SCc3cccc(Br)c3)c(C#N)cc2C1 | inconclusive [cytotoxic, partial curve] | 
Cc1cccc(N=Cc2c(O)n(C)c(=O)n(C)c2=O)c1 | inactive | 
O=C(N/N=C/c1c(O)n(C2CCCCC2)c(=S)[nH]c1=O)c1ccccc1 | inconclusive [cytotoxic, partial curve] | 
Cc1ccc(Sc2ccc(C=C3C(=O)N(C)C(=O)N(C)C3=O)o2)cc1 | inactive | 
C=C1[C@@H](C)[C@H]2[C@H](Cc3ccccc3)NC(=O)[C@]23OC(=O)/C=C/[C@H](O)CCC[C@@H](C)C/C=C/[C@H]3[C@@H]1O | active: 1.3 µM | 
O=C(NCC1=C(c2cccc3ccccc23)C[C@@H]2CC[C@H]1N2Cc1ccco1)c1cccs1 | inconclusive [cytotoxic, partial curve] | 
OCCN1CCN(CCCN2c3ccccc3Sc3ccc(C(F)(F)F)cc32)CC1 | active: 13 µM | 
CN1CCC(O)(c2ccccc2)C2CCCC21 (stereo not given) | inactive | 
COc1cc2c(c(OC)c1OC)-c1ccc(O)c(=O)cc1[C@@H](N)CC2 | inconclusive [cytotoxic, single point] | 
Cn1cnc([N+](=O)[O-])c1Sc1ccc([N+](=O)[O-])cc1 | active: 16.4 µM | 
O=c1c2ccccc2nc(/C=C\c2ccccc2[N+](=O)[O-])n1-c1ccccc1O | inconclusive [cytotoxic, single point] | 
Cc1ccccc1-n1c(O)c(/C=C2/C(c3ccccc3)=Nc3ccccc32)c(=O)[nH]c1=O | inconclusive [cytotoxic, full curve] | 
COc1ccc(C(=O)CC(c2ccc3c(c2)OCO3)c2c(O)c3ccccc3oc2=O)cc1OC (stereo not given) | inactive | 
CC1=C2C(=O)C3C(CC=C4CC(O)CCC43C)C2CCC12OC1CC(C)CNC1C2C (stereo not given) | inactive | 
CCCCCN1C(=O)c2cc(OC)ccc2[C@@]2(C(=O)OCC)Cc3cc(Cl)ccc3[C@@H]12 | active: 2.91 µM | 
CCC(C)(C)n1nnnc1C(c1cccs1)N1CC=C(c2ccc(F)cc2)CC1 (stereo not given) | inconclusive [cytotoxic, single point] | 
C[C@]12CC[C@H](O)C[C@H]1CC[C@@H]1[C@@H]2C[C@@H](O)[C@]2(C)[C@@H](C3=CC(=O)OC3)CC[C@]12O | active: 2.06 µM | 
CC/C(=C\C=C\[C@@H]1C=C[C@@H]2CCC[C@H]2[C@@H]1C(=O)c1ccc[nH]1)[C@@H]1O[C@@H]([C@@H](C)C(=O)O)CC[C@@H]1C | active: 10.3 µM | 
Cc1cccc(N2C(=O)NC(=O)/C(=C\c3cnn(-c4ccccc4)c3)C2=O)c1 | inconclusive [cytotoxic, single point] | 

SMILES | Potency | activity, negative = less viability
COc1ccccc1CNc1nc(NCc2ccccc2SC)c2sccc2n1 | inconclusive [cytotoxic, single point] | 
COc1ccc(NC(=O)Cn2c3ccccc3c3nc4n(c(=O)c32)CCS4)cc1 | inconclusive [cytotoxic, partial curve] | 
CC(C)(C)n1nnnc1C(C1CC1)N1CCC(n2c(=O)[nH]c3ccccc32)CC1 (stereo not given) | inconclusive [rising, partial curve] | 
C=CCN1C(=O)NC(=O)/C(=C/c2ccc(OC)c(COc3ccc(NC(C)=O)cc3)c2)C1=O | inconclusive [cytotoxic, partial curve] | 
CC(Cc1ccccc1)NCCC(c1ccccc1)c1ccccc1 (stereo not given) | inconclusive [cytotoxic, single point] | 
O=C(CSC1c2ccccc2-c2ccccc21)N/N=C/c1ccccc1O | active: 4.47 µM | 
OCC#CC[N+]1(CC#Cc2ccccc2)CCOCC1 | inactive | 
CCC(C)NC(=O)CCC(=O)OC1O[C@H]2OC3(C)CC[C@H]4[C@H](C)CCC(C1C)C24OO3 (stereo not given in full) | active: 7.31 µM | 
CCOC(=O)[C@]12Cc3cc(Cl)ccc3[C@H]1N(C1CCCCC1)C(=O)c1ccccc12 | active: 2.31 µM | 
O=c1c2ccccc2nc(/C=C/c2ccc(O)c(O)c2)n1-c1ccccc1 | inactive | 
O=C(O)c1cccc2c1NC(C(=O)O)C1CC(Sc3ccccc3[N+](=O)[O-])C(Cl)C21 (stereo not given) | inactive | 
O=c1[nH]c(=O)n(-c2ccc(F)cc2)c(O)c1/C=C1\C=Nc2ccccc21 | inactive | 
NP(=O)(OCCCc1ccccc1)Oc1ccc(Cl)cc1 (stereo not given) | inactive | 
CCn1c(O)c(/C=N/NC(=O)c2ccncc2)c(=O)[nH]c1=S | inactive | 
Cc1c2ccncc2c(C)c2c1[nH]c1ccccc12 | active: 10.3 µM | 
CC[C@@]1(O)C(=O)OCc2c1cc1n(c2=O)Cc2cc3c(NC(=O)CN)cccc3nc2-1 | active: 2.31 µM | 
CC/C(=N\NC(=O)c1ccccc1)c1c(O)n(C2CCCCC2)c(=O)[nH]c1=O | inactive | 
Cc1ccccc1C(=O)NC(Oc1ccccc1)C(Cl)(Cl)Cl (stereo not given) | inconclusive [cytotoxic, single point] | 
CCOC(=O)c1cccc(C2=C(CNC(=O)c3ccc([N+](=O)[O-])cc3)[C@H]3CC[C@@H](C2)N3Cc2ccccc2)c1 | inconclusive [cytotoxic, single point] | 
CC(=O)c1cccc(OCC(=O)N2CCN(CC(=O)Nc3cccc(F)c3)CC2)c1 | inactive | 
CC(C)c1ccccc1OCC(=O)N1CCCN(C)CC1 | inactive | 
CCOP(=O)(OCC)/C(=N/OC(=O)c1ccc(Cl)cc1Cl)C(N)=O | inconclusive [rising, single point] | 
COc1ccc(Br)cc1CNCCc1ccc2c(c1)OCO2 | inconclusive [cytotoxic, partial curve] | 
Nc1c(C(=O)OCc2ccccc2)c2nc3ccccc3nc2n1Cc1cccs1 | inconclusive [cytotoxic, single point] | 

SMILES | Potency | activity, negative = less viability
Clc1ccc(CCC(Cn2ccnc2)Sc2c(Cl)cccc2Cl)cc1 (stereo not given) | inconclusive [cytotoxic, single point] | 
COC(/C(C)=C/C=C/C(C)=C/c1coc(C)n1)C(C)C1CC(O)C2(C)OC2C=CC(C)C2CC(CC(=O)O2)CC2OC2C(=O)O1 (stereo not given) | active: 0.013 µM | 
O=C1/C(=C/c2ccccc2Cl)N2CCC1CC2 | inactive | 
CCC(=O)Oc1ccc(C(=O)Nc2cccc(C(=O)c3ccccc3)c2)cc1 | inconclusive [cytotoxic, partial curve] | 
COC(=O)C1=C(C(=O)OC)C2OC1c1cc3ccccc3cc12 | inconclusive [cytotoxic, single point] | 
O=C1NC(=O)N(c2ccccc2)C(=O)/C1=C/C=C/c1ccco1 | active: 18.4 µM | 
COc1ccc2nc(-c3ccc(CN4CCC(n5c(=O)[nH]c6ccccc65)CC4)cc3)c(-c3ccccc3)nc2c1 | inconclusive [cytotoxic, partial curve] | 
C#CC(CC)(CC)NC(=O)Nc1ccc(OCC)cc1 | inactive | 
Nc1c2c(nc3sc4c(c13)CCCCC4)CCCC2 | inconclusive [cytotoxic, single point] | 
COc1ccc(-c2cc(NC=O)c3ncc(-c4cc(OC)c(OC)c(OC)c4)n3c2)c(OC)c1 | inconclusive [cytotoxic, full curve] | 
c1ccc(C2OCCN3CCCCC23)cc1 (stereo not given) | inconclusive [rising, single point] | 
O=C(O)COc1ccccc1 |  | inconclusive: 25.5%
CCCCc1ccc2[nH]cc(CCN)c2c1 | inconclusive [cytotoxic, single point] | 
COC(=O)C(O)(c1ccc(NC(=S)NC(=O)c2ccccc2)cc1)C(F)(F)F (stereo not given) | inconclusive [cytotoxic, single point] | 
CCCCn1c(=O)c(C(=O)Nc2ccccc2S(N)(=O)=O)c(O)c2ccccc21 | inconclusive [cytotoxic, single point] | 
COc1ccc(-n2c(/C=C/c3ccc(O)c(OC)c3)nc3ccccc3c2=O)cc1 | inconclusive [cytotoxic, single point] | 
CCC(=NCCc1ccccc1)c1c(O)n(C)c(=O)n(C)c1=O | inconclusive [cytotoxic, single point] | 
N=C1c2ccccc2CN1c1cccc([N+](=O)[O-])c1 |  | inconclusive: 5.54%
CCOC(=O)C(O)(c1ccc(NC(=O)c2ccc(Cl)c(Cl)c2)cc1)C(F)(F)F (stereo not given) | inactive | 
O=C(Nc1ccc(Cl)cc1C(=O)c1ccccc1Cl)c1ccco1 | inactive | 
CC(=O)OC1CC[C@@]2(C)C(=CC(=O)C3C4CCC(OC(C)=O)[C@@]4(C)CCC32)C1 (stereo not given in full) | inactive | 
O=C(Nc1ccc(Cl)cc1)Nc1ccc(Cl)c(Cl)c1 | inconclusive [cytotoxic, single point] | 
